# Data as given in the supplement of paper PMC12217912.
# This is one part of the list. Sequences were assembled here from the parent chain. Values near 0.05 are background.
# B1: TEV protease; numbered along this chain (parent)
# chain: MGESLFKGPRDYNPISSSICHLTNESDGHTTSLYGIGFGPFIITNKHLFRRNNGTLVVQSLHGVFKVKDTTTLQQHLVDGRDMIIIRMPKDFPPFPQKLKFREPQREERICLVTTNFQTKSMSSMVSDTSCTFPSGDGIFWKHWIQTKDGQCGSPLVSTRDGFIVGIHSASNFTNTNNYFTSVPKNFMELLTNQEAQQWVSGWRLNADSVLWGGHKVFMVKPEEPFQPVKEATQL
# Variants of: B1
# Assay: raw area under fraction-flipped curve 0-4 h after induction (AUC4h, not background-subtracted), DNA-recorder readout of cleavage of the substrate (dimensionless); higher = more cleavage of the substrate by the protease variant
# Details: temperature: 34 °C; time window: 0-4 h after rhamnose induction
# 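Note: Bxb1 expression induced with 0.2% (w/v) L-rhamnose at OD600 near 0.5, cultures sampled hourly, flipped fraction per protease–substrate barcode pair counted by paired-end Illumina sequencing.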
Variant,area with substrate ENLYFQC,area with substrate ENLYFQE,area with substrate ENLYFQG,area with substrate ENLYFQH,area with substrate ENLYFQI,area with substrate ENLYFQK,area with substrate ENLYFQL,area with substrate ENLYFQM,area with substrate ENLYFQN,area with substrate ENLYFQP,area with substrate ENLYFQQ,area with substrate ENLYFQR,area with substrate ENLYFQS,area with substrate ENLYFQT,area with substrate ENLYFQV,area with substrate ENLYFQW,area with substrate ENLYFQD,area with substrate ENLYFQY,area with substrate ENLYFQF
MGESLFKGPRDYNPISSSICHLTNESDGHTTSLYGIGFGPFIITNKHLFRRNNGTLVVQSLHGVFKVKDTTTLQQHLVDGRDMIIIRMPKDFPPFPQKLKFREPQREERICLVTTNFQTKSMSSMVSDTSCTFPSGDGIFWKHWIQTKDGQCGSPLVSTRDGFIVGIHSASNFTNTNNYFTSVPKNFMELLTNQEAQQWVSGWRLNADSVLWGGHKVFMVKDEEPFQPVKEATQL [P222D],0.126,0.0667,0.0649,0.086,0.0663,0.0675,0.0471,0.0711,0.079,0.0721,0.0602,0.0654,0.105,0.0622,0.0806,0.0703,,,
MGESLFKGPRDYNPISSSICHLTNESDGHTTSLYGIGFGPFIITNKHLFRRNNGTLVVQSLHGVFKVKDTTTLQQHLVDGRDMIIIRMPKDFPPFPQKLKFREPQREERICLVTTNFQTKSMSSMVSDTSCTFPSGDGIFWKHWIQTKDGQCGSPLVSTRDGFIVGIHSASNFTNTNNYFTSVPKNFMELLTNQEAQQWVSGWRLNADSVLWGGHKVFMVKPKEPFQPVKEATQL [E223K],0.0861,,0.104,0.0753,0.0639,0.0618,,0.0842,0.0715,0.0627,,0.0523,0.0982,0.0785,,0.0704,0.0685,0.0687,
MGESLFKGPRDYNPISSSICHLTNESDGHTTSLYGIGFGPFIITNKHLFRRNNGTLVVQSLHGVFKVKDTTTLQQHLVDGRDMIIIRMPKDFPPFPQKLKFREPQREERICLVTTNFQTKSMSSMVSDTSCTFPSGDGIFWKHWIQTKDGQCGSPLVSTRDGFIVGIHSASNFTNTNNYFTSVPKNFMELLTNQEAQQWVSGWRLNADSVLWGGHKVFMVKPEEPFLPVKEATQL [Q227L],0.118,,0.101,,0.0578,0.0699,0.0746,0.0797,0.0813,0.0603,,0.0492,0.0997,0.0674,0.0624,,0.0693,0.063,
MGESLFKGPRDYNPISSSICHLTNESDGHTTSLYGIGFGPFIITNKHLFRRNNGTLVVQSLHGVFKVKDTTTLQQHLVDGRDMIIIRMPKDFPPFPQKLKFREPQREERICLVTTNFQTKSMSSMVSDTSCTFPSGDGIFWKHWIQTKDGQCGSPLVSTRDGFIVGIHSASNFTNTNNYFTSVPKNFMELLTNQEAQQWVSGWRLNADSVLWGGHKVFMVKPEEPFQPVKCATQL [E231C],0.162,,0.0726,,0.0555,0.0626,0.0746,0.0999,,0.0431,,,0.0966,0.0414,0.0674,0.0693,0.072,0.074,
MGESLFKGPRDYNPISSSICHLTNESDGHTTSLYGIGFGPFIITNKHLFHRNNGTLVVQSLHGVFKVKDTTTLQQHLVDGRDMIIIRMPKDFPPFPQKLKFREPQREERICLVTTNFQTKSMSSMVSDTSCTFPSGDGIFWKHWIQTKDGQCGSPLVSTRDGFIVGIHSASNFTNTNNYFTSVPKNFMELLTNQEAQQWVSGWRLNADSVLWGGHKVFMVKPEEPFQPVKEATQL [R50H],,0.0816,0.0874,,,0.0707,,,,0.0543,0.0821,0.0696,0.115,,0.0644,0.0649,0.0707,,
MGESLFKGPRDYNPISSSICHLTNESDGHTTSLYGIGFGPFIITNKHLFRRNNGTLVVQHLHGVFKVKDTTTLQQHLVDGRDMIIIRMPKDFPPFPQKLKFREPQREERICLVTTNFQTKSMSSMVSDTSCTFPSGDGIFWKHWIQTKDGQCGSPLVSTRDGFIVGIHSASNFTNTNNYFTSVPKNFMELLTNQEAQQWVSGWRLNADSVLWGGHKVFMVKPEEPFQPVKEATQL [S60H],,,0.133,0.0695,0.0633,,0.0647,0.0874,0.0751,,,0.0615,0.105,0.076,0.0623,0.0656,0.0698,,0.0974
MGESLFKGPRDYNPISSSICHLTNESDGHTTSLYGIGFGPFIITNKHLFRRNNGTLVVQSLHGVFKVKDTTTLQQHLVDGRDMIIIRMNKDFPPFPQKLKFREPQREERICLVTTNFQTKSMSSMVSDTSCTFPSGDGIFWKHWIQTKDGQCGSPLVSTRDGFIVGIHSASNFTNTNNYFTSVPKNFMELLTNQEAQQWVSGWRLNADSVLWGGHKVFMVKPEEPFQPVKEATQL [P89N],,,0.0939,,0.0428,0.0576,0.0462,0.0713,,,0.067,0.0581,0.0847,0.0582,,,0.0628,0.0686,
MGESLFKGPRDYNPISSSICHLTNESDGHTTSLYGIGFGPFIITNKHLFRRNNGTLVVQSLHGVFKVKDTTTLQQHLVDGRDMIIIRMPKDFPPFPQKLKFREPQRYERICLVTTNFQTKSMSSMVSDTSCTFPSGDGIFWKHWIQTKDGQCGSPLVSTRDGFIVGIHSASNFTNTNNYFTSVPKNFMELLTNQEAQQWVSGWRLNADSVLWGGHKVFMVKPEEPFQPVKEATQL [E107Y],,,0.138,0.0712,0.0519,0.0441,0.0656,0.0903,0.0724,,,0.0479,0.108,0.0573,0.0527,0.0815,0.0699,0.0786,
MGESLFKGPRDYNPISSSICHLTNESDGHTTSLYGIGFGPFIITNKHLFRRNNGTLVVQSLHGVFKVKDTTTLQQHLVDGRDMIIIRMPKDFPPFPQKLKFREPQREERICLVTTNFQTKSMSSMVSDTYCTFPSGDGIFWKHWIQTKDGQCGSPLVSTRDGFIVGIHSASNFTNTNNYFTSVPKNFMELLTNQEAQQWVSGWRLNADSVLWGGHKVFMVKPEEPFQPVKEATQL [S130Y],,,0.0801,0.0795,0.0667,,,0.0751,0.0742,,,,0.0869,0.0691,,0.0624,0.0607,,
